Measured values as given in the supplement of paper PMC3334620.
Over roughly 33,000 sequences, “E-score (-0.5 to 0.5)” has its median near -0.053; the highest 2% begin near 0.37. Some of the results follow.

The sequences below were run against Hap1 (UniProt P0CE41) (assay: PBM E-score (8-mer binding enrichment) (E-score (-0.5 to 0.5)); higher = stronger / more preferred TF binding; most listed sequences are background and not binding sites). Conditions: protein concentration: 200 nM; construct: GST-DNA-binding domain.
UniProt P0CE41, sequence (P0CE41 whole entry, the tested form may be a part): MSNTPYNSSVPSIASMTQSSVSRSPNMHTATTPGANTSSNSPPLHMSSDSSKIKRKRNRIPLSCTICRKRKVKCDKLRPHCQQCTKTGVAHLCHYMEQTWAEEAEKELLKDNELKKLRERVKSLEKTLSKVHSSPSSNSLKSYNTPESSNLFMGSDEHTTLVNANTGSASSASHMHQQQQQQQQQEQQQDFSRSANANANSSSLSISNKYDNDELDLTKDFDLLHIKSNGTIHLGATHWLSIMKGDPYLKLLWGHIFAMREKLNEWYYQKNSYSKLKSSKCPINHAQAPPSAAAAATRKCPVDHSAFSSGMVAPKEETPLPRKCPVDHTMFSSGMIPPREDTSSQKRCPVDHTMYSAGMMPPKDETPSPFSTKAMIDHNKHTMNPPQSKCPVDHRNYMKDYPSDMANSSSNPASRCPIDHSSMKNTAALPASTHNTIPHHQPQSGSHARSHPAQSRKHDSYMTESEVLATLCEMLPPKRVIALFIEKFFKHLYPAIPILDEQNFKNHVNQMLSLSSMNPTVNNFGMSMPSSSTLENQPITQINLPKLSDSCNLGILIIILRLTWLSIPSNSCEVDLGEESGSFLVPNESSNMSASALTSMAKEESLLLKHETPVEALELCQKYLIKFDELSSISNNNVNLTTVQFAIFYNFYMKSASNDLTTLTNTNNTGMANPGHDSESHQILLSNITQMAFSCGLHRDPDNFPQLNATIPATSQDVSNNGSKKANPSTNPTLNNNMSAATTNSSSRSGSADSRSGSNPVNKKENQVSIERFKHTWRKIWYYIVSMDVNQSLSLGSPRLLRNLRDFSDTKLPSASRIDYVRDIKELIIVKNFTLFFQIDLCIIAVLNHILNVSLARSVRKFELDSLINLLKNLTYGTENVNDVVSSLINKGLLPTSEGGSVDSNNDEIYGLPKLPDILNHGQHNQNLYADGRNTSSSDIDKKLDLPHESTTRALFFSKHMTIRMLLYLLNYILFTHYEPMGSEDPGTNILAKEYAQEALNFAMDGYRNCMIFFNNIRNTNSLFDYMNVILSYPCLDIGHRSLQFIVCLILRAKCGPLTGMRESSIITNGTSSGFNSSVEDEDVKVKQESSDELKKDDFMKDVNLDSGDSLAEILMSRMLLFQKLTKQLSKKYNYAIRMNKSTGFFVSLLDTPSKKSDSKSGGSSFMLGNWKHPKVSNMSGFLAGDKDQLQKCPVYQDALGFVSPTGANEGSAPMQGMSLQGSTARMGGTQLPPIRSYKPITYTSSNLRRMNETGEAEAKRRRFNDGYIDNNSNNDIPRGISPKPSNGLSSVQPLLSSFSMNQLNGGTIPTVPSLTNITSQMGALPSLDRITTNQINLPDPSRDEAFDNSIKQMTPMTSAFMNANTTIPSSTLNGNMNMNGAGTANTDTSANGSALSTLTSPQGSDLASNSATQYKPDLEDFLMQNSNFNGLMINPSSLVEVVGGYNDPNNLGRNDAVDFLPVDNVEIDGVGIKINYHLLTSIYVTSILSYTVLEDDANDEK
How it was run: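 E-scores (a modified Wilcoxon-Mann-Whitney statistic) were assigned by the Universal PBM Analysis Suite to every ungapped eight-base word pooled with its reverse complement. The input came from universal all-10-mer Agilent arrays made double-stranded by primer extension and probed with GST-tagged yeast transcription factors at about 100-200 nM. Fluorescent anti-GST detected bound protein, and masliner normalised the scans.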

| Sequence | PBM E-score |
| --- | --- |
| AGCGATAA | 0.284 |
| ACAGGCCT | -0.198 |
| CGTAACAC | -0.016 |
| GCTTCCGA | 0.229 |
| CTCTGTAA | -0.284 |
| ATATGGTG | -0.0575 |
| GACCAGTA | 0.00108 |
| CCAACTTC | -0.127 |
| ACCCCCAG | -0.25 |
| GTGAATTA | -0.0515 |
| CGGGGTAA | 0.302 |
| CATTCGGA | 0.321 |
| CCATCCAA | -0.136 |
| ACAATTTC | -0.0295 |
| ATCTGCCG | 0.318 |
| CCACACGC | -0.0115 |
| GACCACGC | -0.063 |
| TCTCGCCA | -0.0825 |
| ACCTGGTC | 0.213 |
| CGTGCTAC | -0.0707 |
| CGTTGTTC | 0.168 |
| CAAGTAAA | 0.0597 |

| Sequence | PBM E-score |
| --- | --- |
| CTGGTAGA | -0.2 |
| CAAACGAC | -0.123 |
| AAAGCGTG | -0.117 |
| AGGGCGAA | 0.142 |
| CCAGCCCA | -0.12 |
| CCTGAGGC | -0.0848 |
| GGGAAACA | 0.112 |
| CCGAACGA | 0.313 |
| AGCCCGCG | 0.235 |
| ATTTTTTA | 0.145 |
| AATGTATG | -0.129 |
| GATCGCCA | -0.0197 |
| TGTCGGAA | 0.233 |
| GACCGGAA | 0.361 |
| CATCCATG | -0.227 |
| CGGAATAC | 0.35 |
| ACACTCTA | -0.138 |
| ATCGTACA | -0.0583 |
| AGGTCTCA | -0.00289 |
| AGGAAGAG | -0.146 |
| CATCCTAG | -0.216 |
| ACCCGTCT | -0.0322 |

| Sequence | PBM E-score |
| --- | --- |
| ACGGAGAG | 0.284 |
| TCCTCACA | -0.0176 |
| TACTAAAA | -0.0154 |
| GAGAGTGA | -0.147 |
| AAATGTCA | -0.168 |
| CACTCTTA | -0.217 |
| GACACCTC | 0.0163 |
| GCGTGTCA | -0.0947 |
| GCCCGGGC | 0.434 |
| ACTCCAGA | -0.174 |
| CTTGAAAC | 0.0301 |
| CTTCGACA | -0.309 |
| AGAACGAT | -0.199 |
| ACTAGTAG | -0.149 |
| ATGCGCAC | -0.141 |
| TGAGTGCA | -0.175 |
| AAGAAGGA | -0.21 |
| AAGGATAT | 0.0796 |
| GAGTCAAC | -0.124 |
| AATTAGGA | -0.0195 |
| AACACCCG | 0.309 |
| AATTTTTA | 0.0164 |

| Sequence | PBM E-score |
| --- | --- |
| ACACCGCA | 0.21 |
| CCCGCAAG | -0.103 |
| ATAAGTAC | -0.0179 |
| ACAGAGGC | -0.186 |
| CCAAGGCG | -0.103 |
| ATTAAGGG | -0.101 |
| GACACCGC | 0.128 |
| CCGCAGAC | 0.121 |
| CGTTTTTC | -0.0472 |
| ACTAAATC | 0.155 |
| CAGTATAG | -0.0365 |
| AAAGATGA | -0.143 |
| CACACGGC | 0.153 |
| CAATCACC | 0.245 |
| AAGATGAC | -0.22 |
| AGATTGAG | -0.135 |
| GGAAGTGA | 0.112 |
| CGCGCGCC | 0.201 |
| CAAAACGC | 0.0814 |
| CGCGGACA | 0.335 |
